Assay results reported in PubChem BioAssay (NCI).
“And” between values parts separate entries of the source, which are not always exact repeats. Identical values can stand only once.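 Cells were grown in 96-well plates and exposed to each compound for 48 hours at five concentrations; endpoints were interpolated linearly between bracketing concentrations, or set to the highest concentration if not reached. At the GI50, growth is halved. Definition used: TGI = concentration required for complete inhibition of growth.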 Square brackets hold non-standard residues; d marks the D form. Peptide text beside a SMILES is read from it. 2Nal = N[CH](Cc1ccc2ccccc2c1)C(=O)O

Tested on: NCI-H322M lung
Assay: NCI anticancer screen, dose series, 48 h

Compound | TGI | GI50
Cn1ncc2c(NCCc3ccccc3)nc(Cl)nc21 | > 100 µM | –
CCCCCCCCCCCCCCCCCCNc1ccn(C2OC(CO)C(OP(=O)(O)OCC3CCC(n4ccc(N)nc4=O)O3)C2O)c(=O)n1 (configuration not stated) | > 100 µM | –
Cc1ccc(NC(=O)SCCC(=O)O)cc1NC(=O)SCCC(=O)O | > 100 µM | –
COc1ccc(OC)c(-c2nc3sccn3c2/C=C2/C(=O)Nc3ccccc32)c1 | 29.5 µM | 1.69 µM
N#CC1=C(N)Oc2c(sc3c(F)cccc23)C1c1ccc([N+](=O)[O-])cc1 (configuration not stated) | 2.01 µM | 0.503 µM
O=C(O)C1Cc2nc[nH]c2CN1 (configuration not stated) | > 100 µM | –
CS(=O)(=O)C(=Cc1ccccc1Cl)S(C)(=O)=O | > 100 µM | –
Cc1ccccc1NC(=O)C(=O)Cc1nc2ccccc2s1 | > 100 µM | –
CC(C)NC(C)Cc1ccccc1 (configuration not stated) | > 100 µM | –
O=C1CCC(=O)c2cc(Br)ccc2N1 | > 100 µM | –
CN1c2ccccc2C2c3c(O)ccc(O)c3C=C([N+](=O)[O-])C21 (configuration not stated) | 6.13 µM | –
N#Cc1c(NC(=O)CCC(=O)O)ccc2ccccc12 | > 100 µM | –
CCC(C)(C)NC1=C(NC(C)=O)C(=O)c2ccccc2C1=O | > 75 µM | –
O=C1c2c(Br)sc(Br)c2[C@H]2NC(=S)O[C@@H]12 | 36.4 µM | –
C/C=C(/C)C(=O)OC1C=C(CO)C(=O)C(OC(=O)/C(C)=C\C)C1C(C)C (configuration not stated) | 2.91 µM | 1.55 µM
C=C(CO)CC(O)c1ccccc1 (configuration not stated) | > 100 µM | –
O=C(C#Cc1c[nH]c(=O)[nH]c1=O)c1ccccc1 | 28.7 µM | –
CCOC(=O)c1sc2nc(SC)nc(Nc3ccc(OC)c(OC)c3)c2c1N | > 100 µM | –
CC(=O)OC1CC(OC2C(O)CC(OC3C(O)CC(OC4CCC5(C)C(CCC6C5CC(O)C5(C)C(C7=CC(=O)OC7)CCC65O)C4)OC3C)OC2C)OC(C)C1O (configuration not stated) (tested in a mixture with another compound) | 0.119 µM | –
COC(=O)C(C(=O)C(=O)Nc1ccccc1OC)c1csc(-n2nc(-c3ccccc3)cc2-c2ccccc2)n1 (configuration not stated) | > 100 µM | –
COc1cc(OC)c(/C=N/N=C(\N)NO)c(OC)c1 | > 100 µM | –
CCCNc1[nH]c(C(C)=O)c(N)c1C(=S)Nc1ccccc1 | > 100 µM | –
CC(NC1CCC[C@H]1O)c1ccccc1 (mixture of isomers) | > 100 µM | –
C(/COc1cccnc1)=N\NC1=NCCN1 | > 100 µM | –
COc1cc(/C=C2\C(=O)N(c3c(Cl)cccc3Cl)c3ccccc32)cc(OC)c1O | 15.4 µM | 1.93 µM
COc1ccc(-c2nc3ccc(C)cc3o2)c(OC)c1 | > 84.6 µM | –

Compound | TGI | GI50
CN/N=C(\C)CC(=O)Nc1cccc(Cl)c1C | > 100 µM | –
CNC(Cc1ccccc1)c1cccc(OC)c1O (configuration not stated) | > 100 µM | –
Cn1cc(-c2ccc(CCOC3CCCCO3)cc2)c2c(C#N)cccc21 (configuration not stated) | > 100 µM | –
N#Cc1cccc(Nc2nccc(-c3cnn4ncccc34)n2)c1 | > 25 µM | 0.00973 µM
COC(CNC(=O)C(C)NC(=O)C(C)NC(=O)c1ccccc1)OC (configuration not stated) | > 100 µM | –
CC(=O)N1c2ccccc2C23CCN4CC5=CCOC(O)C(C5CC42)C13 (configuration not stated) | > 100 µM | –
Nc1nc(Cl)c2ncn(Cc3ccccc3CCl)c2n1 | 29.4 µM | –
COC(=O)[C@]1(c2cc3ccccc3n2S(=O)(=O)c2ccccc2)CC2CCC1NC2 (some centres not stated) | 31.5 µM | –
Nc1nc(Cl)cc(Nc2ccc3c(c2)CCC3)n1 | > 100 µM | –
COc1cccc(/C=N/n2c(-c3ccccc3)n[nH]c2=O)c1 | > 100 µM | –
CC(C)(C)OC(=O)C1/C(=C/CO)CN1C(=O)OC(C)(C)C (configuration not stated) | > 100 µM | –
CC[n+]1[b-](C(C)(C)C)n(/N=C(\C)C(C)(C)C)[b-](C(C)(C)C)[n+]1CC | > 100 µM | –
COc1ccc(OC)c(C2CCc3cnc4nc(N)nc(N)c4c3C2)c1 (configuration not stated) | > 100 µM | –
COc1cc(CNC(=O)CCCCCCCC/C=C/Br)ccc1O | > 10 µM | –
COc1cc2c(cc1OC)-c1c(cc(OC)c(OC)c1OC)C2=O | > 100 µM | –
Cc1ccc(S(=O)(=O)C2=c3ncccc3=C3C(=O)c4ccccc4C(=O)C32)cc1 (configuration not stated) | > 100 µM | –
COC(=O)[C@]1(c2cc3ccccc3[nH]2)CC2CN(CC(=O)N(C)OC)C1C1OC(C)(C)OC21 (some centres not stated) | > 100 µM | –
CCNC1CC(C(C)(C)NCC)CC=C1C (configuration not stated) | > 100 µM | –
CN(C)CCCC1(c2ccc(F)cc2)OCc2cc(-c3ccc4cc[nH]c4c3)ccc21 (configuration not stated) | 3.62 µM | 1.85 µM
O=C(O)/C(O)=C1/C=C(c2ccccc2)c2ccccc21 | 78.3 µM | –
CSc1s[s+]c(SC)c1[O-] | > 100 µM | –
CNC(=O)N(CCC#N)CCN(CCN(C(=O)NC)c1ccccc1)C(=O)NC | > 100 µM | –
COc1ccc(/C=N/NC(=O)O)cc1 | > 100 µM | –
Clc1ccc2c(NCCNc3nc(-c4ccccc4)cc(-c4ccccc4)n3)ccnc2c1 | 3.27 µM | 1.73 µM
C=CCC1(O)c2cccc(O)c2C(=O)c2c(O)cccc21 | > 100 µM | –
CC1=CC(C)C(O)C(C)/C=C/C(O)C/C=C(/C)C(=O)CC(O)C(C)\C=C/C=C/C=C\C(=O)NC2=C(O)c3cc(C)c(O)c(c3C(=O)C2=O)C1=O (configuration not stated) | > 100 µM | –

Compound | TGI | GI50
COC(=O)C1CCc2c(OC)ccc(OC)c2C1=O (configuration not stated) | > 100 µM | –
O=C1C=C(Br)C(=O)C(Br)=C1 | > 100 µM | –
NC(C(=O)O)C(N)C(=O)O (configuration not stated) | > 100 µM | –
COC(=O)c1ccccc1CC1Cc2cc3c(cc2C1)CCC3 | > 100 µM | –
Nc1ncnc2c1ncn2CC(OCP(=O)(O)O)Oc1ccccc1 (configuration not stated) | > 100 µM | –
Cc1sc(N=Nc2c(O)[nH]c3ccccc23)nc1-c1ccccc1 | 42.8 µM | –
O=C(O)[C@@H]1C[C@@H](O)CN1 | > 100 µM | –
CCN(CC)CC(C)(C)C(=O)/C=C/c1ccc(C)cc1 | 16.6 µM | –
Cc1oc2c(c1C(=O)c1ccccc1)C(=O)c1ccccc1C2=O | 30.7 µM | –
CO[C@H](/C(C)=C/C=C/C(C)=C/c1coc(C)n1)[C@H](C)[C@H]1C[C@@H](O)[C@@]2(C)O[C@H]2/C=C/[C@@H](C)[C@@H]2C[C@@H](CC(=O)O2)C[C@H]2O[C@@H]2C(=O)O1 | 5 µM and 50 µM and 33.9 µM | –
CC(=O)CN=C(C)NNc1ccc([N+](=O)[O-])cc1[N+](=O)[O-] | > 100 µM | –
COc1ccc2[nH]cc(/C=C3\C(=O)Nc4ccccc43)c2c1 | 66.5 µM | 7.28 µM
CC(NC(=O)C(N)Cc1ccccc1)C(=O)NC(Cc1ccc(O)cc1)C(=O)NC(Cc1c[nH]c2ccccc12)C(=O)NC(CCCCN)C(=O)NC(C(=O)NC(C)C(=O)NC(Cc1ccc2ccccc2c1)C(N)=O)C(C)C (configuration not stated) (H-FAYWKVA[2Nal]-NH2; configuration not given here) | > 12.5 µM and 48.7 µM | 20.9 µM
COc1cc2cc(C(=O)O)[nH]c2cc1OCc1ccccc1 | > 100 µM | > 100 µM
CC(C)(C)C1CCC2c3c([nH]c4ccccc34)C3C(=O)N(c4ccc(Br)cc4)C(=O)C3C2C1 (configuration not stated) | > 100 µM | –
CCCCCCCCCCCCCCCCCC(=O)NCCCNCCCNC(=O)CCCCCCCCCCCCCCCCC | > 100 µM | –
c1ccc(-c2cc(-c3cc(-c4ccccn4)[nH]n3)n[nH]2)nc1 | > 100 µM | –
COc1cc2cc(C(=O)N3CC(COS(C)(=O)=O)c4c3cc([N+](=O)[O-])c3ccccc43)[nH]c2c(OC)c1OC (configuration not stated) | > 100 µM | –
Nc1nc(N)c(-c2ccccc2)c(C(=O)Nc2ccc(Cl)c(Cl)c2)n1 | > 100 µM | –
CC(=O)OCCn1c(Cc2ccc([N+](=O)[O-])cc2)nn(C(C)=O)c1=O | > 100 µM | –
CC(=O)Oc1ccc(-c2cc3ccccc3oc2=O)cc1OC(C)=O | > 100 µM | –
CC(C)CCNC(=O)c1ccc(CNC(=O)/C=C/c2ccc(-c3ccccc3[N+](=O)[O-])o2)cc1 | > 100 µM | –
CSC(=S)NN=C1CCCCC1 | 53 µM | –
O=S(=O)(Nc1ccc(Cl)c(C(F)(F)F)c1)c1ccc(-c2cnc(C3CC3)o2)cc1 | 8.91 µM | 1.63 µM
